# In PubChem BioAssay AID624296 (National Center for Advancing Translational Sciences (NCATS), 2012):
# The whole screen tested about 350,000 compounds, of which about 9,900 (2.8%) were called active. The shares of active, inactive and inconclusive entries below differ from those in the screen. The call rests on the fitted dose curve; in most records, active means well fitted activation curve with a large enough effect; inconclusive means small, poorly fitted or top-dose-only effect; inactive means no such curve, though single readings can be large or run the other way. Potencies of inconclusive entries are left out as doubtful fits.
# Test: A quantitative high throughput screen for small molecules that induce DNA re-replication in MCF 10a normal breast cells. Further: nearly all actives have a fitted effect of over 50% in size.
# Conditions: MCF 10A DNA re-replication, Hoechst nuclear intensity, 48 h; series mostly up to 46.1 µM
# Potency means the concentration at half of the fitted maximal effect; tags describe the fitted curve by direction and shape.
row,SMILES,Potency
1,Clc1ccc(/C=C\c2nccc3c2[nH]c2ccccc23)cc1,active: 2.59 µM
2,Nc1c(Cl)cc(-c2cn(CCC(=O)O)c(-c3ccncc3)n2)cc1Cl,"inconclusive [activator, partial curve, poor fit]"
3,CC(C)c1ccc(N(C(=O)C(F)(F)F)C(C(=O)NC2CCCCC2)c2ccncc2)cc1 (centres undefined),"inconclusive [activator, full curve]"
4,CCOc1ccccc1NC(=O)/C(C#N)=C/c1c(C)nn(-c2ccc(F)cc2)c1Cl,"inconclusive [activator, single point]"
5,O=C(N[C@H]1CCCCNC1=O)c1cc(COc2ccc(F)cc2F)on1,inactive
6,COc1ccc(NC(=S)N2CCN(C(=O)c3ccccc3)CC2)cc1,inactive
7,CCCCNc1nc2ccccc2nc1NS(=O)(=O)c1ccc(F)cc1,"inconclusive [activator, single point]"
8,CC(=O)c1c(C)c2c(n1CCN(C)C)CCCC2,"inconclusive [activator, single point]"
9,CCCCCCCCCCCCCCCC[n+]1cccc2ccccc21,active: 18.4 µM
10,c1ccc(CSc2nnc(-c3ccco3)c(-c3ccco3)n2)cc1,"inconclusive [activator, partial curve, poor fit]"
11,CCCn1c2ccc(F)cc2c2nnc(NN)nc21,"inconclusive [activator, partial curve, poor fit]"
12,COc1ccc(-n2c(=O)c3ccccc3c3ccccc3c2=O)c(OC)c1,"inconclusive [activator, partial curve, poor fit]"
13,CC1CN(C(=O)COC(=O)c2cnc(Cl)c(Cl)c2)CC(C)O1 (centres undefined),"inconclusive [activator, single point]"
14,CSc1nc(-c2ccccc2)nc2c1COC(C)(C)C2,"inconclusive [activator, single point]"
15,Cc1noc(NS(=O)(=O)c2ccc(NC(=O)CSc3nc4c(cc3C#N)CCCCC4)cc2)c1C,active: 20.6 µM
16,CCc1noc(C)c1C(=O)Nc1nc(-c2ccc(NC(C)=O)cc2)cs1,inactive
17,O=C(Nc1cc([N+](=O)[O-])ccc1F)C1CC1,inactive
18,CCc1ccc(NC(=O)C(=O)NCCN2CCN(S(C)(=O)=O)CC2)cc1,"inconclusive [activator, partial curve, poor fit]"
19,Cc1cc(=O)[nH]c(SCCOc2cccc(C(F)(F)F)c2)n1,"inconclusive [activator, full curve, poor fit]"
20,O=C(CNC(c1ccccc1)c1ccccc1)NCc1ccccc1Cl,inactive
21,CC(=O)c1cccc(NC(=S)NC(=O)C(C)C)c1,inactive
22,O=C(NC12CC3CC(CC(C3)C1)C2)c1cccc([N+](=O)[O-])c1,"inconclusive [activator, single point]"
23,CCc1cc(=O)oc2c(CNCc3ccccc3F)c(O)c(Cl)cc12,"inconclusive [activator, single point]"

row,SMILES,Potency
1,COCc1ccc2oc(C(=O)O)cc2c1,"inconclusive [activator, single point]"
2,Cc1nn(-c2ccccc2)c(N)c1Sc1ccc([N+](=O)[O-])cc1,"inconclusive [activator, full curve, poor fit]"
3,CC(C)N1CCc2c(sc(NC(=O)c3ccc(S(=O)(=O)N4CCCCC4C)cc3)c2C(N)=O)C1 (centres undefined),"inconclusive [activator, single point]"
4,CCOc1ccc(OCc2ccc(C(=O)Nc3cccc(C)n3)o2)cc1,"inconclusive [activator, full curve, poor fit]"
5,O=c1c(-c2ccc(F)cc2)coc2cc(O)ccc12,inactive
6,Cc1c(C(=O)N2CCOCC2)sc2ncnc(N3CCc4ccccc4C3)c12,inactive
7,CC(C)c1ccc(/C=C/C(=O)NNC(=O)c2cccnc2)cc1,"inconclusive [activator, single point]"
8,Clc1nc(NCc2ccco2)nc(N2CCCCC2)n1,"inconclusive [activator, single point]"
9,COc1ccc(C2C(C#N)=C(N)Oc3cccc(O)c32)cc1 (centres undefined),"inconclusive [activator, partial curve, poor fit]"
10,CCCn1c(/C=C/c2ccccc2)nc2ccccc21,active: 23.1 µM
11,COCCN(Cc1cc2cc(C)ccc2n2nnnc12)C(=S)Nc1ccccc1C,"inconclusive [activator, partial curve, poor fit]"
12,CCOC(=O)c1c(-c2cccs2)csc1NC(=O)C(C)(C)C,active: 13 µM
13,Cc1cc(C(=O)N2CCc3c([nH]c4ccccc34)C2c2cccc(Cl)c2)nn1C (centres undefined),inactive
14,CCOc1ccc(N(C)S(=O)(=O)c2ccc(-c3cc(C)no3)s2)cc1,active: 4.61 µM
15,COc1ccc(NS(=O)(=O)c2ccc3oc(SCc4ccc(F)cc4)nc3c2)cc1,"inconclusive [activator, single point]"
16,CN(NC(N)=O)c1ncc(C(F)(F)F)cc1Cl,inactive
17,Oc1cc(-c2ccccc2)c2ccccc2c1,"inconclusive [activator, full curve, poor fit]"
18,Cc1cccc(Nc2nc(NCc3ccco3)nc(N3CCOCC3)n2)c1,"inconclusive [activator, partial curve, poor fit]"
19,O=C(Nn1cnnc1)c1ccc(F)cc1,inactive
20,Cc1cc(Cl)cc(Br)c1OCCCNCC(C)O (centres undefined),"inconclusive [activator, partial curve, poor fit]"
21,CC(=O)Oc1ccc2ccccc2c1C(NC(=O)C(C)C)c1cccc([N+](=O)[O-])c1 (centres undefined),"inconclusive [activator, partial curve, poor fit]"
22,CC(=O)Nc1ccc2c(c1)C(=Nc1ccccc1)c1ccccc1-2,inactive
23,Cc1cc(=O)oc2cc(OCc3ccc(C(=O)N4CCN(c5ccccc5)CC4)cc3)ccc12,"inconclusive [activator, full curve, poor fit]"

row,SMILES,Potency
1,Cc1ccc(N=Nc2c(C)[nH]n(C(N)=S)c2=O)cc1,"inconclusive [activator, single point]"
2,CCc1ccc(OCC(=O)N/N=C(\C)c2ccccc2OC(F)F)cc1,"inconclusive [activator, single point]"
3,CN1C[C@@H]2[C@@H]3C(=O)N(C)C(=O)[C@@H]3[C@](Cc3ccccc3)(C1=O)N2C(=O)c1ccc(Cl)cc1,"inconclusive [activator, single point]"
4,COc1cc(-c2nnc3n2N=C(c2ccccc2)CS3)cc(OC)c1OC,"inconclusive [activator, full curve, poor fit]"
5,OC(COc1ccc(OCc2ccccc2)cc1)CN1CCCCC1 (centres undefined),inactive
6,CN1C2=CC=CC=CC2=[N+](C)C12C([N+](=O)[O-])=CC(=[N+]([O-])[O-])C=C2[N+](=O)[O-] (centres undefined),"inconclusive [activator, partial curve, poor fit]"
7,CSc1nc(NS(=O)(=O)c2cc(C)c(Cl)cc2Cl)nn1C,inactive
8,O=C(CCc1nc2ccccc2[nH]c1=O)OCC(=O)c1ccc(Cl)cc1,"inconclusive [activator, single point]"
9,C#CCOCCOCCOCCNc1nc(N2CCN(C(=O)Cn3cc(CCCN=C(N)N)nn3)CC2)nc(N2CCN(C(=O)[C@H](C(C)C)n3cc(CCO)nn3)CC2)n1,"inconclusive [activator, partial curve, poor fit]"
10,CCOC(=O)N1CCN(C(=O)c2cn(CC)c3ccc(S(=O)(=O)N4CCCCC4)cc3c2=O)CC1,"inconclusive [activator, single point]"
11,C=CCOC(=O)C(=O)/C=C/c1csc2ccccc12,"inconclusive [activator, single point]"
12,Cc1cc(C)n2nc(C(=O)OCC(=O)Nc3ccc(C)c(F)c3)nc2n1,"inconclusive [activator, single point]"
13,CC(=O)Nc1nnc(-c2c(-c3c(Cl)cccc3Cl)noc2C)o1,inactive
14,COc1cc(C(=O)Nc2scc(-c3ccccc3)c2C(=O)O)cc(OC)c1OC,"inconclusive [activator, partial curve, poor fit]"
15,CCC(C)N(C(=O)Cn1nnc2ccccc21)C(C(=O)Nc1ccc(F)cc1)c1cccc(OC)c1 (centres undefined),inactive
16,COc1ccc(C2c3ccc(O)cc3Oc3ncn4nc(-c5cccnc5)nc4c32)cc1OC (centres undefined),inactive
17,CC(=O)c1ccc(NC(=O)C2CCC(C)(C(=O)O)C2(C)C)cc1 (centres undefined),inactive
18,Cc1cnc(C(=O)N(CC(C)C)c2c(N)n(CC(C)C)c(=O)[nH]c2=O)cn1,inactive
19,Cc1cccc(NC(=O)CCN2C(=O)c3cccc([N+](=O)[O-])c3C2=O)c1,"inconclusive [activator, full curve, poor fit]"
20,C/C(=N\NC(=O)CNc1cccc2ccccc12)c1ccc(Br)s1,"inconclusive [activator, single point]"
21,CC(=O)c1cccc(OC(=O)C2=CC=CN3CCS(=O)(=O)N=C23)c1,inactive
22,COc1ccc(-c2csc(NC(=O)C3CCCCN3S(=O)(=O)c3ccccc3)n2)cc1 (centres undefined),"inconclusive [activator, single point]"
23,COc1ccc(Cl)cc1NC(=O)Cn1c(C)csc1=O,inactive
